According to PubChem BioAssay AID651820 (National Center for Advancing Translational Sciences (NCATS), 2012):
In all, about 340,000 compounds went through this assay and about 12,000 (3.5%) were called active. The inconclusive results got no clear call from the source; some entries with a clear call stand among them for comparison. The call rests on the fitted dose curve; in most records, active means well fitted inhibition curve with a large enough effect; inconclusive means small, poorly fitted or top-dose-only effect, or another doubt; inactive means no such curve, though single readings can be large or run the other way. No potency is given beside an inconclusive call; the fits are too rough.

test: qHTS Assay for Inhibitors of Hepatitis C Virus (HCV); details: Huh7.5.1 HCVcc-Cre (HCVcc is cell-culture hepatitis C virus) infection, luciferase reporter, 44 h; activity change, negative = inhibition: at 41.8 µM (top of the series) unless noted
How it was run: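 HCVcc-Cre virus at an moi near 0.5 was added right after compound to cells cultured 4 h from seeding (1,000 cells/well). Luciferase activity was determined 44 h later, 15 min after substrate addition at RT.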
On the % scale 0 is the no-effect control and ±100 the full control effect; potency means the concentration at half of the fitted maximal effect; tags describe the fitted curve by direction and shape.

Question: Which “activity change, negative = inhibition” value does the source give for `CCOC(=O)C1=C(O)/C(=C/c2ccc(-c3ccccc3C(=O)O)o2)SC1=Nc1ccc(C)cc1` here?
Answer: inactive: -1.78%

Question: With `COc1ccc(CCn2c(=O)[nH]c3cc(C(=O)N4CCN(c5ccccc5)CC4)ccc3c2=O)cc1OC` as the compound, how does the Potency read?
Answer: inconclusive [inhibitor, partial curve, poor fit]

Question: For `CCOC(=O)C1=C(C)NC2=C(C(=O)CCC2)C1c1coc2ccccc2c1=O` (stereo not drawn), which “activity change, negative = inhibition” value is on record?
Answer: inactive: -7.18%

Question: For `COc1ncccc1-c1nnn(-c2ccc(Cl)nc2)n1`, which “activity change, negative = inhibition” value is on record?
Answer: inactive: 10.1%

Question: For `Cc1cc2ncn(CC3CC3(Cl)Cl)c2cc1C` (stereo not drawn), which Potency is on record?
Answer: inconclusive [inhibitor, single point]

Question: Which Potency does the source give for `CCn1nc(C)c(CNC(=O)c2ccc(OC3CCN(Cc4ccccn4)CC3)cc2)c1C` here?
Answer: active: 1 µM

Question: For `C[n+]1c2n(c3ccccc31)N=C(c1ccc(-c3ccccc3)cc1)CS2`, which Potency is on record?
Answer: active: 7.08 µM

Question: Which Potency does the source give for `Cc1ccc(NC(=O)CCCN2C(=O)c3cccc4cccc(c34)C2=O)cc1` here?
Answer: inconclusive [inhibitor, single point]

Question: With `CN(C)c1ccc(N/C=C/C(=O)c2ccco2)cc1` as the compound, how does the “activity change, negative = inhibition” value read?
Answer: inactive: -12.8%

Question: For `COc1cc(CNCc2ccccc2Cl)ccc1OCC(=O)NC1CCCCC1`, which Potency is on record?
Answer: inconclusive [inhibitor, single point]

Question: For `Cc1ccc(/C=N/Nc2nc(C(C)(C)C)cs2)o1`, which Potency is on record?
Answer: inconclusive [inhibitor, single point]

Question: Which Potency does the source give for `CC1(C)CC2CC(C)(CN2/C=N/c2sc3c(c2C#N)CC(C)(C)NC3(C)C)C1` (stereo not drawn) here?
Answer: inconclusive [inhibitor, single point]

Question: With `CCOC(=O)C1CCN(C(=O)CCc2c(C)nc3cc(-c4ccccc4)nn3c2C)CC1` as the compound, how does the Potency read?
Answer: inconclusive [inhibitor, single point]

Question: Which Potency does the source give for `Cc1cccc(NC(=O)C2CCN(S(=O)(=O)c3cccs3)CC2)n1` here?
Answer: inconclusive [inhibitor, single point]

Question: For `CC1CC(C)CN(S(=O)(=O)c2ccc(F)c(C(=O)Nc3ccc(Cl)cc3F)c2)C1` (stereo not drawn), which Potency is on record?
Answer: inconclusive [inhibitor, partial curve]

Question: Which Potency does the source give for `CCOC(=O)N1CCN(S(=O)(=O)c2ccc(C(=O)Nc3ccc(F)cc3F)cc2)CC1` here?
Answer: inconclusive [inhibitor, partial curve]

Question: Which Potency does the source give for `COc1ccc(-n2nnnc2SCC(=O)Nc2cc(OC)c([N+](=O)[O-])cc2C)cc1` here?
Answer: inconclusive [inhibitor, single point]

Question: For `CC(C)c1ccc(NC2CCCN(C(=O)c3ccsc3)C2)cc1` (stereo not drawn), which “activity change, negative = inhibition” value is on record?
Answer: inactive: -26.5%

Question: For `CC(=O)c1ccc(NC(=O)Nc2ccc([N+](=O)[O-])cc2C)cc1`, which Potency is on record?
Answer: inconclusive [inhibitor, full curve]

Question: With `CN1C(=O)/C(=C/c2ccccc2OCc2cccc(F)c2)NC1=S` as the compound, how does the Potency read?
Answer: inconclusive [inhibitor, single point]

Question: For `COc1ccc(Oc2ccc(S(=O)(=O)N3CCCCC3)cc2S(=O)(=O)N2CCCCC2)cc1`, which Potency is on record?
Answer: inconclusive [inhibitor, partial curve]

Question: With `CCc1noc(C)c1C(=O)N1CCC(CCC(=O)Nc2cccc(C)c2)CC1` as the compound, how does the Potency read?
Answer: inconclusive [inhibitor, partial curve]

Question: For `Cc1ccc(NC2=C(NC(=O)c3ccccc3)C(=O)c3ccccc3C2=O)cc1Cl`, which Potency is on record?
Answer: inconclusive [inhibitor, partial curve]

Question: For `Brc1ccc(-c2noc(-c3ccccc3)n2)o1`, which Potency is on record?
Answer: inconclusive [inhibitor, single point]

Question: Which “activity change, negative = inhibition” value does the source give for `COc1cc(C(C)=O)ccc1OCc1cc(C(=O)N(C)CCC2CCCCO2)no1` (stereo not drawn) here?
Answer: inactive: 9.71%

Question: Which Potency does the source give for `COc1cccc(N2CCN(C(=O)C3CCN(S(=O)(=O)c4ccc5c(c4)CC(C)N5C(C)=O)CC3)CC2)c1` (stereo not drawn) here?
Answer: active: 11.2 µM

Question: Which Potency does the source give for `Cc1ccc(S(=O)(=O)N(C)CC(=O)Nc2ccncc2)cc1` here?
Answer: inconclusive [inhibitor, single point]

Question: With `NS(=O)(=O)c1cccc(NC(=O)CN2CCc3ccccc32)c1` as the compound, how does the Potency read?
Answer: inconclusive [inhibitor, single point]

Question: Which Potency does the source give for `CCCCn1c(SCc2c(C)noc2C)nc2cc(S(N)(=O)=O)ccc21` here?
Answer: inconclusive [inhibitor, full curve]

Question: With `COCCNC(=S)NNC(=O)c1cc(-c2cccnc2)nc2ccccc12` as the compound, how does the “activity change, negative = inhibition” value read?
Answer: inactive: -9.09%

Question: Which Potency does the source give for `Cc1cc(NC(=O)c2oc3ccccc3c2C)ccc1-n1cnnn1` here?
Answer: inconclusive [inhibitor, full curve]

Question: With `CCN(CC)S(=O)(=O)c1cc(NS(=O)(=O)c2cccs2)ccc1C` as the compound, how does the Potency read?
Answer: inconclusive [inhibitor, single point]

Question: With `COC(=O)CCC(=O)Nc1sc(Cc2ccccc2)c(C)c1C(N)=O` as the compound, how does the “activity change, negative = inhibition” value read?
Answer: inactive: 6.34%

Question: Which Potency does the source give for `CN(C)CCNc1ncnc2c1cnn2-c1ccc(Cl)cc1` here?
Answer: inconclusive [inhibitor, single point]

Question: With `COC(=O)/C=C/c1oc2ccccc2c1C` as the compound, how does the “activity change, negative = inhibition” value read?
Answer: inactive: -4.52%

Question: With `CCCc1ccc(OCc2ccc(C(=O)OC)o2)c(OC)c1` as the compound, how does the Potency read?
Answer: inconclusive [inhibitor, single point]

Question: Which Potency does the source give for `Cc1cc(N2CCOCC2)nc2ccc(NC(=O)CCC(=O)N3CCN(c4ccccc4F)CC3)cc12` here?
Answer: active: 22.4 µM

Question: Which Potency does the source give for `CCOC(=O)c1cnc2c(OC)cccc2c1N1CCN(c2ccccc2OC)CC1` here?
Answer: inconclusive [inhibitor, single point]

Question: With `O=C(NCC1CCCO1)c1nn2c(C(F)(F)F)cc(-c3ccco3)nc2c1Cl` (stereo not drawn) as the compound, how does the Potency read?
Answer: inconclusive [inhibitor, partial curve]

Question: Which Potency does the source give for `CSc1nccc(NC(=O)c2cccc(Br)c2)n1` here?
Answer: active: 10 µM

Question: For `CCCCC1CCC(C(=O)OC(C)C(=O)Nc2ccc(NC(C)=O)cc2)CC1` (stereo not drawn), which “activity change, negative = inhibition” value is on record?
Answer: inactive: 0.182%

Question: With `CCOc1ccc(NS(=O)(=O)c2ccc(C(=O)NCC(c3ccc(OC)cc3)N3CCCC3)cc2)cc1` (stereo not drawn) as the compound, how does the Potency read?
Answer: inconclusive [inhibitor, single point]

Question: Which Potency does the source give for `Cc1cccc(N2CCN(C(=O)Cn3ccc4ccccc4c3=O)CC2)c1C` here?
Answer: inconclusive [inhibitor, single point]

Question: Which Potency does the source give for `CC(Nc1nc(-c2ccc(Cl)cc2)cs1)c1nc2cc(Cl)c(N3CCCCC3)cc2n1CCOCCO` (stereo not drawn) here?
Answer: inconclusive [inhibitor, partial curve]

Question: For `CCOC(=O)c1[nH]cnc1C(=O)O`, which “activity change, negative = inhibition” value is on record?
Answer: inactive: 11.6%

Question: With `O=C(N/N=C/c1cc2c(cc1Cl)OCO2)c1cccc(Br)c1` as the compound, how does the Potency read?
Answer: inconclusive [inhibitor, full curve, poor fit]

Question: With `CC(C)Oc1ccc(-c2cc(C(=O)NCCN3CCOCC3)c3ccccc3n2)cc1` as the compound, how does the Potency read?
Answer: active: 10 µM

Question: For `Cc1nc(Nc2ccc(Cl)c(Cl)c2)sc1C(=O)Nc1ccccc1`, which Potency is on record?
Answer: active: 8.91 µM

Question: For `O=C(COc1ccc(Cl)cc1Br)N1CCN(c2ncccn2)CC1`, which Potency is on record?
Answer: inconclusive [inhibitor, single point]

Question: For `O=C(N/N=C/c1c(O)n(CCc2ccccc2)c(=O)[nH]c1=O)c1ccccc1O`, which Potency is on record?
Answer: inconclusive [inhibitor, partial curve]

Question: With `CCOc1ccc(C(=O)NCC2OCCc3ccccc32)cc1` (stereo not drawn) as the compound, how does the Potency read?
Answer: inconclusive [inhibitor, partial curve]

Question: Which Potency does the source give for `COc1cccc(CC(=S)N2CCOCC2)c1` here?
Answer: inconclusive [inhibitor, single point]

Question: Which “activity change, negative = inhibition” value does the source give for `O=C(C1=COCCO1)N1CCN(S(=O)(=O)c2cccc(Cl)c2Cl)CC1` here?
Answer: inactive: 7.57%

Question: For `O=C(NCCc1ccc(F)cc1)c1cccc2c1C(=O)c1ccc(N3CCC(Cc4ccccc4)CC3)cc1S2(=O)=O`, which Potency is on record?
Answer: inconclusive [inhibitor, full curve]

Question: With `Cc1sc2ncnc(SCC(=O)Nc3ccc(CN4CCCC4)cc3)c2c1C` as the compound, how does the Potency read?
Answer: inconclusive [inhibitor, single point]

Question: Which Potency does the source give for `CC(=O)Nc1ccc(NC(=O)c2ccc(Cl)c(S(=O)(=O)N3CCc4ccccc43)c2)cc1` here?
Answer: inconclusive [inhibitor, single point]

Question: With `CCc1ccc(NC(=O)C[n+]2cc(-c3ccc(C)cc3)n3c2CCC3)cc1` as the compound, how does the Potency read?
Answer: inconclusive [inhibitor, single point]

Question: Which Potency does the source give for `O=C(CNc1ccccc1)N/N=C/c1cc([N+](=O)[O-])ccc1N1CCCC1` here?
Answer: inconclusive [inhibitor, partial curve]

Question: For `N#Cc1ccccc1S(=O)(=O)N1CCN(C(=O)CN2CCCC2c2cccs2)CC1` (stereo not drawn), which “activity change, negative = inhibition” value is on record?
Answer: inactive: 0.953%

Question: With `O=C(NC(=S)Nc1ccccc1N1CCCC1)c1cccs1` as the compound, how does the Potency read?
Answer: inconclusive [inhibitor, single point]

Question: With `COc1ccccc1C(=O)NCCn1cc(SCC(=O)Nc2nnc(C)s2)c2ccccc21` as the compound, how does the “activity change, negative = inhibition” value read?
Answer: inactive: -11.2%

Question: Which “activity change, negative = inhibition” value does the source give for `CCCC1=C(C(=O)OCC)C2(C(=O)Nc3ccc(C)cc32)C(C#N)=C(N)O1` (stereo not drawn) here?
Answer: inactive: 26.7%

Question: Which Potency does the source give for `COc1ccccc1NC(=S)NN=C(C)c1ccccn1` here?
Answer: inconclusive [inhibitor, full curve]

Question: For `O=C(Nc1cccc2c1CCCC2)c1cc([N+](=O)[O-])ccc1Cl`, which Potency is on record?
Answer: inconclusive [inhibitor, single point]

Question: Which Potency does the source give for `CCOC(=O)c1c(NC(=O)COc2ccccc2F)sc2c1CC(C)(C)NC2(C)C` here?
Answer: inconclusive [inhibitor, partial curve, poor fit]

Question: Which Potency does the source give for `CCOC(=O)c1ccc(NC(=S)N2CCC(C(N)=O)(N3CCCCC3)CC2)cc1` here?
Answer: inconclusive [inhibitor, full curve]

Question: Which Potency does the source give for `Cc1cccn2c(=O)c3cc(C#N)c(=NC(=O)c4ccco4)n(Cc4ccco4)c3nc12` here?
Answer: inconclusive [inhibitor, full curve, poor fit]

Question: Which “activity change, negative = inhibition” value does the source give for `O=C1c2ccccc2C(O)(c2ccccc2)N1c1ccncc1` (stereo not drawn) here?
Answer: inactive: 19.8%
